# Results published in the supplement of paper PMC7826260.
# The list shows a part of the results. Each Rep nickase domain was tested in vitro on the same pool of single strands (1 h at 37 °C, 3 µM enzyme); the outer parts of the 90-letter strands are left off. Values are log2 of uncut reads against the no-enzyme pool; strong cutting gives strongly negative numbers. There is no active / inactive call. Shares of all reads are compared, so uncut sequences can rise above 0 when many others are cut.
# Tests used:
# Test in all cases: uncleaved DNA left, log2 of reads against the no-enzyme library (log2 ratio); higher = less cleavage (more negative = more Rep cleavage of the k-mer); sequences stand for … in CTCGTCCG…ACCGGAGA
# [1] = system: T1, Rep nickase domain of Muscovy duck circovirus
# T1 sequence (residues 1-111 of Rep, tag left off): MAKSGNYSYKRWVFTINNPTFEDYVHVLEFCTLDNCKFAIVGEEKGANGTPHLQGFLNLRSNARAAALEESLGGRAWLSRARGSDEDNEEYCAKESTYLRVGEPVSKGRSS
# Experimental: (§1)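 A pool of 90-nt single-stranded DNAs with seven random bases just before the constant AC of the nick site (name = the seven bases) was cut by 3 µM recombinant His6-SUMO-tagged Rep nickase domain (300 nM DNA, 50 mM HEPES pH 8.0, 50 mM NaCl, 1 mM MnCl2, 1 h, 37 °C, three replicates). Uncut DNA was amplified and sequenced.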
# [2] = system: T2, Rep nickase domain of banana bunchy top virus
# T2 sequence (residues 1-94 of Rep, tag left off): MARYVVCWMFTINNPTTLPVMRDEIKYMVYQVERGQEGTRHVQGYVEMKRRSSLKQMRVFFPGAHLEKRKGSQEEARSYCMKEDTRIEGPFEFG
# Experimental: as §1
# [3] = system: T3, Rep nickase domain of cabbage leaf curl virus
# T3 sequence (residues 1-116 of Rep, tag left off): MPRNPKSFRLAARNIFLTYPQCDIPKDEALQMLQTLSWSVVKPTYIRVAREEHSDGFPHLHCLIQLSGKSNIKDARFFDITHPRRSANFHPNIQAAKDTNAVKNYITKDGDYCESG
# Experimental: as §1
# [4] = system: T4, Rep nickase domain of chickpea chlorotic dwarf virus
# T4 sequence (residues 1-124 of Rep, tag left off): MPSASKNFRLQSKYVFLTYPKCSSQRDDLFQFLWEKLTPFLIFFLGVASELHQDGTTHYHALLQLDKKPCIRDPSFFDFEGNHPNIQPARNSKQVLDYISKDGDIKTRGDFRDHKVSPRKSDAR
# Experimental: as §1
# [5] = system: T5, Rep nickase domain of faba bean necrotic yellows virus
# T5 sequence (residues 1-98 of Rep, tag left off): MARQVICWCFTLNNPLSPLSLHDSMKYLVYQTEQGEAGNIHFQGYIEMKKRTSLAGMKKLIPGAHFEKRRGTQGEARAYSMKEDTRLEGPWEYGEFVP
# Experimental: as §1
# [6] = system: T6, Rep nickase domain of maize striate mosaic virus
# T6 sequence (residues 1-117 of Rep, tag left off): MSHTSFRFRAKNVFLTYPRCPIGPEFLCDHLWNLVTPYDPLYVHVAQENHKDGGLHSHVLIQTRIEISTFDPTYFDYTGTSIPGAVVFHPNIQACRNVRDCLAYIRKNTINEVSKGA
# Experimental: as §1
# [7] = system: T7, Rep nickase domain of porcine circovirus 2
# T7 sequence (residues 2-116 of Rep, tag left off): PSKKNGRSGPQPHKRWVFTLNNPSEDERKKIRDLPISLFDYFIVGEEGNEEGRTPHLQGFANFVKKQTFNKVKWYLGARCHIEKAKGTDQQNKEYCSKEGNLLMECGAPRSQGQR
# Experimental: as §1
# [8] = system: T8, Rep nickase domain of tomato golden mosaic virus
# T8 sequence (residues 1-124 of Rep, tag left off): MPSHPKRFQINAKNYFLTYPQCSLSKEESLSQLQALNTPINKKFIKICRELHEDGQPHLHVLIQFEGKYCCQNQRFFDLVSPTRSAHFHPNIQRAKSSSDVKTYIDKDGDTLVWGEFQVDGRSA
# Experimental: as §1
# [9] = system: T9, Rep nickase domain of tomato yellow leaf curl virus
# T9 sequence (residues 1-136 of Rep, tag left off): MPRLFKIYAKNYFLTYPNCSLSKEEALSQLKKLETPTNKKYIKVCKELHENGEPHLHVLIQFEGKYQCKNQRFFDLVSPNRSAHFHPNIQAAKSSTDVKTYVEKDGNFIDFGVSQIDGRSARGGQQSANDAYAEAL
# Experimental: as §1
# [10] = system: T10, Rep nickase domain of wheat dwarf virus
# T10 sequence (residues 1-137 of Rep, tag left off): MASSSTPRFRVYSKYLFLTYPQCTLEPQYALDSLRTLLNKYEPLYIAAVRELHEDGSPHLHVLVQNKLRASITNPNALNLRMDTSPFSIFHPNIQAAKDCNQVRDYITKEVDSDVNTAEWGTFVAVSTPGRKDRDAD
# Experimental: as §1
sequence,measurement,setting,value
AGCTTGA,uncleaved DNA left (log2),[1],-0.0822
same,uncleaved DNA left (log2),[2],0.0306
same,uncleaved DNA left (log2),[3],-0.0131
same,uncleaved DNA left (log2),[4],0.722
same,uncleaved DNA left (log2),[5],-0.0204
same,uncleaved DNA left (log2),[6],0.6
same,uncleaved DNA left (log2),[7],-0.168
same,uncleaved DNA left (log2),[8],0.0038
same,uncleaved DNA left (log2),[9],-0.101
same,uncleaved DNA left (log2),[10],0.032
GTTTCAA,uncleaved DNA left (log2),[1],0.0707
same,uncleaved DNA left (log2),[2],0.072
same,uncleaved DNA left (log2),[3],0.314
same,uncleaved DNA left (log2),[4],0.845
same,uncleaved DNA left (log2),[5],-0.137
same,uncleaved DNA left (log2),[6],1.77
same,uncleaved DNA left (log2),[7],-0.0111
same,uncleaved DNA left (log2),[8],0.185
same,uncleaved DNA left (log2),[9],0.0733
same,uncleaved DNA left (log2),[10],0.078
GAGTGCC,uncleaved DNA left (log2),[1],0.0854
same,uncleaved DNA left (log2),[2],-0.0559
same,uncleaved DNA left (log2),[3],0.0888
same,uncleaved DNA left (log2),[4],0.185
same,uncleaved DNA left (log2),[5],-0.0328
same,uncleaved DNA left (log2),[6],-0.116
same,uncleaved DNA left (log2),[7],-0.698
same,uncleaved DNA left (log2),[8],-0.0926
same,uncleaved DNA left (log2),[9],0.051
same,uncleaved DNA left (log2),[10],0.00752
TTGTAAA,uncleaved DNA left (log2),[1],0.0209
same,uncleaved DNA left (log2),[2],0.0181
same,uncleaved DNA left (log2),[3],0.353
same,uncleaved DNA left (log2),[4],0.689
same,uncleaved DNA left (log2),[5],0.0215
same,uncleaved DNA left (log2),[6],1.07
same,uncleaved DNA left (log2),[7],0.06
same,uncleaved DNA left (log2),[8],0.075
same,uncleaved DNA left (log2),[9],0.0972
same,uncleaved DNA left (log2),[10],-0.0388
TCAAACC,uncleaved DNA left (log2),[1],-0.0343
same,uncleaved DNA left (log2),[2],0.101
same,uncleaved DNA left (log2),[3],0.0158
same,uncleaved DNA left (log2),[4],-0.697
same,uncleaved DNA left (log2),[5],0.00789
same,uncleaved DNA left (log2),[6],-0.571
same,uncleaved DNA left (log2),[7],-0.484
same,uncleaved DNA left (log2),[8],-0.0317
same,uncleaved DNA left (log2),[9],0.071
same,uncleaved DNA left (log2),[10],0.0653
ACACGTC,uncleaved DNA left (log2),[1],0.0417
same,uncleaved DNA left (log2),[2],-0.0435
same,uncleaved DNA left (log2),[3],-0.313
same,uncleaved DNA left (log2),[4],-0.506
same,uncleaved DNA left (log2),[5],0.13
same,uncleaved DNA left (log2),[6],-0.862
same,uncleaved DNA left (log2),[7],0.128
same,uncleaved DNA left (log2),[8],0.0246
same,uncleaved DNA left (log2),[9],-0.0752
same,uncleaved DNA left (log2),[10],-0.0136
GAAGGCC,uncleaved DNA left (log2),[1],0.0202
same,uncleaved DNA left (log2),[2],0.0653
same,uncleaved DNA left (log2),[3],0.364
same,uncleaved DNA left (log2),[4],0.797
same,uncleaved DNA left (log2),[5],0.00268
same,uncleaved DNA left (log2),[6],0.546
same,uncleaved DNA left (log2),[7],0.0112
same,uncleaved DNA left (log2),[8],-0.000366
same,uncleaved DNA left (log2),[9],0.127
same,uncleaved DNA left (log2),[10],0.139
TACACCT,uncleaved DNA left (log2),[1],0.0439
same,uncleaved DNA left (log2),[2],-0.0991
same,uncleaved DNA left (log2),[3],-1.7
same,uncleaved DNA left (log2),[4],-2.79
same,uncleaved DNA left (log2),[5],0.115
same,uncleaved DNA left (log2),[6],-0.273
same,uncleaved DNA left (log2),[7],-1.33
same,uncleaved DNA left (log2),[8],-0.0649
same,uncleaved DNA left (log2),[9],0.0324
same,uncleaved DNA left (log2),[10],-0.0572
CGATCTA,uncleaved DNA left (log2),[1],0.0221
same,uncleaved DNA left (log2),[2],-0.0901
same,uncleaved DNA left (log2),[3],-0.00397
same,uncleaved DNA left (log2),[4],0.139
same,uncleaved DNA left (log2),[5],-0.12
same,uncleaved DNA left (log2),[6],0.871
same,uncleaved DNA left (log2),[7],-0.125
same,uncleaved DNA left (log2),[8],-0.184
same,uncleaved DNA left (log2),[9],-0.0535
same,uncleaved DNA left (log2),[10],0.0413
CAGGTAG,uncleaved DNA left (log2),[1],0.0699
same,uncleaved DNA left (log2),[2],0.0381
same,uncleaved DNA left (log2),[3],-0.41
same,uncleaved DNA left (log2),[4],-0.428
same,uncleaved DNA left (log2),[5],0.177
same,uncleaved DNA left (log2),[6],-0.935
same,uncleaved DNA left (log2),[7],0.337
same,uncleaved DNA left (log2),[8],0.103
same,uncleaved DNA left (log2),[9],0.126
same,uncleaved DNA left (log2),[10],0.0392
ACTAACT,uncleaved DNA left (log2),[1],-0.0786
same,uncleaved DNA left (log2),[2],-0.169
same,uncleaved DNA left (log2),[3],-0.72
same,uncleaved DNA left (log2),[4],-2.69
same,uncleaved DNA left (log2),[5],-0.0482
same,uncleaved DNA left (log2),[6],-0.857
same,uncleaved DNA left (log2),[7],-1.38
same,uncleaved DNA left (log2),[8],-0.0254
same,uncleaved DNA left (log2),[9],-0.103
same,uncleaved DNA left (log2),[10],-0.0408
AAATCTC,uncleaved DNA left (log2),[1],-0.106
same,uncleaved DNA left (log2),[2],0.0471
same,uncleaved DNA left (log2),[3],-3.16
same,uncleaved DNA left (log2),[4],-2.78
same,uncleaved DNA left (log2),[5],0.0733
same,uncleaved DNA left (log2),[6],-0.0879
same,uncleaved DNA left (log2),[7],-0.438
same,uncleaved DNA left (log2),[8],-1.52
same,uncleaved DNA left (log2),[9],0.144
same,uncleaved DNA left (log2),[10],-2.05
GTAGTCG,uncleaved DNA left (log2),[1],0.134
same,uncleaved DNA left (log2),[2],0.113
same,uncleaved DNA left (log2),[3],-0.589
same,uncleaved DNA left (log2),[4],-0.257
same,uncleaved DNA left (log2),[5],0.043
same,uncleaved DNA left (log2),[6],-0.587
same,uncleaved DNA left (log2),[7],0.185
same,uncleaved DNA left (log2),[8],0.0513
same,uncleaved DNA left (log2),[9],0.196
same,uncleaved DNA left (log2),[10],0.0858
TTGCTCT,uncleaved DNA left (log2),[1],-0.0885
same,uncleaved DNA left (log2),[2],-0.0721
same,uncleaved DNA left (log2),[3],-0.467
same,uncleaved DNA left (log2),[4],-1.6
same,uncleaved DNA left (log2),[5],0.0105
same,uncleaved DNA left (log2),[6],-1.15
same,uncleaved DNA left (log2),[7],-0.169
same,uncleaved DNA left (log2),[8],-0.121
same,uncleaved DNA left (log2),[9],0.0213
same,uncleaved DNA left (log2),[10],-0.136
GAGACGT,uncleaved DNA left (log2),[1],0.066
same,uncleaved DNA left (log2),[2],0.224
same,uncleaved DNA left (log2),[3],0.904
same,uncleaved DNA left (log2),[4],2.08
same,uncleaved DNA left (log2),[5],0.0729
same,uncleaved DNA left (log2),[6],2.23
same,uncleaved DNA left (log2),[7],0.135
same,uncleaved DNA left (log2),[8],0.106
same,uncleaved DNA left (log2),[9],0.117
same,uncleaved DNA left (log2),[10],0.316
